From the supplement of paper PMC4967469
IC50 is the fitted dose that halves viability relative to control wells, and lower means more sensitive; fits outside the tested doses are given as limits. AUC is the area under the same curve over the 256-fold range up to the top dose, as a fraction; the more sensitive the line, the further below 1. For some of these results: A top dose marked as inferred comes from the curve model; the source does not state it. For some of these results: An entry number marks a drug with two screens in the source, which often give different values.

Key:
Experiment in all cases: Viability of human cancer cell lines after 72 h of drug (GDSC screen)
[1] = compound: C[C@]12O[C@H](C[C@]1(O)CO)n1c3ccccc3c3c4c(c5c6ccccc6n2c5c31)CNC4=O [CEP-701]; conditions: top dose 2 µM; top dose inferred
Description: (§1)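 Human cancer cell lines in 384-well plates, medium with 10% serum, drug for 72 h over a 256-fold dose range (nine 2-fold or five 4-fold steps up to the top dose). Adherent lines were fixed and stained with the nucleic acid dye Syto60, suspension lines read with resazurin; signal relative to control wells, capped at 0 and 100%. One two-parameter sigmoid per drug and line, fitted in a mixed model over all curves with the slope shared within a line.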

[2] = compound: Cn1cc(C2=C(c3ccc(Cl)cc3Cl)C(=O)NC2=O)c2ccccc21 [SB 216763]; conditions: top dose 10 µM; top dose inferred
Description: as §1

[3] = compound: CS(=O)(=O)N1CCN(Cc2cc3nc(-c4cccc5[nH]ncc45)nc(N4CCOCC4)c3s2)CC1 [GDC0941]; conditions: top dose 4 µM; screen: GDSC drug entry 1527; top dose inferred
Description: as §1

[4] = compound: Cc1ccc(Nc2nccc(N(C)c3ccc4c(C)n(C)nc4c3)n2)cc1S(N)(=O)=O [Pazopanib]; conditions: top dose 8 µM
Description: as §1

[5] = compound: CC(C)[C@H](C(=O)Nc1ccc(C(=O)NO)cc1)c1ccccc1 [AR-42]; conditions: top dose 5.12 µM; top dose inferred
Description: as §1

Row | Cell Line | AUC [1] | IC50 [1] [nM] | AUC [2] | IC50 [2] [nM] | AUC [3] | IC50 [3] [nM] | AUC [4] | IC50 [4] [nM] | AUC [5] | IC50 [5] [nM]
1 | SU8686 (pancreas, adherent) | 0.793 | 1040 | 0.984 | > 10000 | 0.886 | > 4000 | 0.982 | > 8000 | 0.781 | 2410
2 | SU-DHL-5 (B-cell lymphoma, suspension) | 0.386 | 65.9 | 0.994 | > 10000 | 0.291 | 76.6 | 0.976 | > 8000 | 0.137 | 37.4
3 | SUIT-2 (pancreas, adherent) | 0.664 | 367 | 0.986 | > 10000 | 0.899 | > 4000 | 0.941 | > 8000 | 0.516 | 354
4 | SW13 (adrenal gland, adherent) | 0.712 | 500 | 0.987 | > 10000 | 0.675 | 773 | 0.9 | > 8000 | 0.976 | > 5120
5 | SW780 (bladder, adherent) | 0.645 | – | 0.986 | > 10000 | 0.642 | 642 | 0.972 | > 8000 | 0.944 | > 5120
6 | SW948 (large intestine, adherent) | 0.883 | > 2000 | 0.978 | > 10000 | 0.939 | > 4000 | 0.971 | > 8000 | 0.565 | 521
7 | SW1271 (small cell lung carcinoma, adherent) | 0.786 | 1010 | 0.984 | > 10000 | 0.97 | > 4000 | 0.797 | 4440 | 0.594 | 603
8 | SW1417 (large intestine, adherent) | 0.794 | 1100 | 0.985 | > 10000 | 0.889 | > 4000 | 0.986 | > 8000 | 0.591 | 594
9 | SW1710 (bladder, adherent) | 0.498 | 124 | 0.929 | > 10000 | 0.649 | 654 | 0.774 | 3240 | 0.586 | 555
10 | SW1990 (pancreas, adherent) | 0.8 | 1170 | 0.977 | > 10000 | 0.902 | > 4000 | 0.825 | 5980 | 0.978 | > 5120
11 | SiHa (cervix, adherent) | 0.839 | 1680 | 0.985 | > 10000 | 0.878 | > 4000 | 0.965 | > 8000 | 0.965 | > 5120
12 | T47D (breast, adherent) | 0.879 | > 2000 | 0.96 | > 10000 | 0.535 | 327 | 0.945 | > 8000 | 0.471 | 255
13 | T84 (large intestine, adherent) | 0.97 | > 2000 | 0.989 | > 10000 | 0.722 | 1080 | 0.989 | > 8000 | 0.62 | 689
14 | T98G (glioma, adherent) | 0.688 | 402 | 0.896 | > 10000 | 0.773 | 1440 | 0.878 | 7070 | 0.68 | 973
15 | TGBC11TKB (stomach, adherent) | 0.85 | 1250 | 0.99 | > 10000 | 0.959 | > 4000 | 0.99 | > 8000 | 0.591 | 550
16 | TOV-112D (ovary, adherent) | 0.668 | 369 | 0.986 | > 10000 | 0.755 | 1360 | 0.809 | 4200 | 0.546 | 427
17 | TT2609-C02 (thyroid, adherent) | 0.33 | 40.4 | 0.986 | > 10000 | 0.968 | > 4000 | 0.745 | 2660 | 0.527 | 381
18 | TT (thyroid, adherent) | 0.658 | 409 | 0.981 | > 10000 | 0.93 | > 4000 | 0.875 | > 8000 | 0.954 | > 5120
19 | TYK-nu (ovary, adherent) | 0.57 | 197 | 0.964 | > 10000 | 0.901 | > 4000 | 0.951 | > 8000 | 0.558 | 467
20 | U251 (glioma, adherent) | 0.945 | > 2000 | 0.894 | > 10000 | 0.922 | > 4000 | 0.945 | > 8000 | 0.369 | 142
21 | U-118-MG (glioma, adherent) | 0.833 | 1590 | 0.983 | > 10000 | 0.893 | > 4000 | 0.869 | > 8000 | 0.749 | 1880
22 | UACC-62 (melanoma, adherent) | 0.814 | 1080 | 0.967 | > 10000 | 0.664 | 711 | 0.987 | > 8000 | 0.682 | 1020
23 | UACC-893 (breast, adherent) | 0.955 | > 2000 | 0.979 | > 10000 | 0.761 | 1900 | 0.975 | > 8000 | 0.824 | 4530
